Test results published in the supplement of paper PMC4206461.
The list shows a part of the results.

system: Pseudomonas aeruginosa PA14 dppA1-A5 penta deletion mutant; assay: respiration area under curve with compound as sole nitrogen source, 24 h (OmniLog AUC (arbitrary units)); higher = more respiration / better utilisation as nitrogen source, active = 2000 or more; extreme values may be limits of the assay; settings: plate: PM6
Method: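 Biolog Phenotype MicroArray plates PM6-PM8: each di/tripeptide is the sole nitrogen source. Tetrazolium reduction was read in the OmniLog for 24 h at 37°C and summarised as area under the respiration curve (arbitrary units). Values below 2000 count as no respiration.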

Row | SMILES | respiration area under curve
1 | CC[C@H](C)[C@H](NC(=O)[C@@H](N)CCCN=C(N)N)C(=O)O | active: 9510
2 | CC(C)C[C@H](N)C(=O)NCC(=O)O | active: 6030
3 | C[C@H](N)C(=O)N[C@@H](Cc1c[nH]c2ccccc12)C(=O)O | active: 4250
4 | NC(N)=NCCC[C@H](NC(=O)[C@@H](N)CCCN=C(N)N)C(=O)O | active: 10100
5 | CC[C@H](C)[C@H](N)C(=O)N[C@@H](CO)C(=O)O | inactive: 539
6 | CSCC[C@H](NC(=O)[C@@H](N)CCCN=C(N)N)C(=O)O | active: 10700
7 | CC[C@H](C)[C@H](N)C(=O)N[C@H](C(=O)O)C(C)C | active: 2490
8 | CC(C)C[C@H](NC(=O)[C@@H](N)CC(=O)O)C(=O)O | inactive: 136
9 | NCC(=O)N[C@@H](CO)C(=O)O | active: 3360
10 | C[C@H](N)C(=O)N1CCC[C@H]1C(=O)O | inactive: 889
11 | CC[C@H](C)[C@H](N)C(=O)N[C@@H](CCSC)C(=O)O | inactive: 229
12 | CC[C@H](C)[C@H](N)C(=O)N[C@H](C(=O)O)[C@@H](C)CC | inactive: 678
13 | NC(N)=NCCC[C@H](N)C(=O)N[C@@H](CC(=O)O)C(=O)O | active: 9050
14 | CC(C)C[C@H](NC(=O)[C@@H](N)CC(C)C)C(=O)O | active: 3110
15 | CC(C)[C@H](NC(=O)CN)C(=O)O | inactive: 413
16 | CC[C@H](C)[C@H](N)C(=O)N[C@@H](Cc1ccccc1)C(=O)O | inactive: 1100
17 | NC(=O)CC[C@H](N)C(=O)NCC(=O)O | active: 3260
18 | N[C@@H](CC(=O)O)C(=O)N[C@@H](Cc1ccccc1)C(=O)O | inactive: 163
19 | NCC(=O)NCC(=O)O | inactive: 293

same assay, conditions: plate: PM7

Row | SMILES | respiration area under curve
20 | CC(C)C[C@H](N)C(=O)N[C@@H](CO)C(=O)O | active: 12700
21 | CSCC[C@H](NC(=O)[C@@H](N)CO)C(=O)O | inactive: 322
22 | N[C@@H](Cc1c[nH]c2ccccc12)C(=O)N[C@@H](CCC(=O)O)C(=O)O | inactive: 110
23 | N[C@@H](Cc1ccccc1)C(=O)N[C@@H](Cc1c[nH]c2ccccc12)C(=O)O | inactive: 732
24 | C[C@H](NC(=O)[C@@H]1CCCN1)C(=O)O | inactive: 630
25 | N[C@@H](Cc1c[nH]c2ccccc12)C(=O)NCC(=O)O | inactive: 675
26 | N[C@@H](CO)C(=O)N[C@@H](CO)C(=O)O | inactive: 1960
27 | CSCCC(N)C(=O)NC(CCSC)C(=O)O (stereo not given) | inactive: 0
28 | NC(N)=NCCC[C@H](NC(=O)[C@@H](N)Cc1c[nH]c2ccccc12)C(=O)O | active: 12500

same assay, conditions: plate: PM8

Row | SMILES | respiration area under curve
29 | N[C@@H](CC(=O)O)C(=O)NCC(=O)O | inactive: 1.29
30 | NC(=O)CC[C@H](N)C(=O)N[C@@H](CCC(=O)O)C(=O)O | active: 2390
31 | CC[C@H](C)[C@H](NC(=O)CNC(=O)CN)C(=O)O | inactive: 29.1
32 | C[C@@H](N)C(=O)NCC(=O)NCC(=O)O | inactive: 37.9
33 | NCC(=O)NCC(=O)NCC(=O)O | inactive: 51
34 | CC(C)C[C@H](N)C(=O)N1CCC[C@H]1C(=O)O | inactive: 0.429
35 | NCC(=O)N[C@@H](CC(=O)O)C(=O)O | inactive: 0
36 | C[C@H](N)C(=O)N[C@@H](CCC(N)=O)C(=O)O | active: 3080
37 | C[C@H](N)C(=O)N[C@@H](CC(=O)O)C(=O)O | active: 2130
38 | O=C(O)[C@H](Cc1c[nH]c2ccccc12)NC(=O)[C@@H]1CCCN1 | inactive: 492
39 | CC[C@H](C)[C@H](NC(=O)[C@@H](N)Cc1ccc(O)cc1)C(=O)O | active: 6150
40 | NC(=O)CC[C@H](NC(=O)[C@@H](N)CC(=O)O)C(=O)O | inactive: 324
